Counter-ions that a name gives are not always drawn. ± gives the standard deviation of the averaged measurements. Whole data set: some 3,100 compounds, median “mean cytoplasmic OPP incorporation (global translation) relative to DMSO” near 100, cut for the lowest 2% near 56. This is one part of the list.
Each compound was assayed on U2OS (assay: mean cytoplasmic OPP incorporation (global translation) relative to DMSO (% of DMSO); higher = more protein synthesis). Conditions: 10 µM; 24 h.
Description: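 Primary image-based screen in U2OS cells: compounds at 10 uM for 24 h, then a 1 h o-propargyl-puromycin (OPP) pulse, click labelling, and high-throughput microscopy. Mean cytoplasmic OPP intensity and nuclei count were normalised to DMSO wells within each plate (DMSO = 100) and averaged over triplicate plates.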

Row | SMILES | mean cytoplasmic OPP incorporation
1 | CCCCCCCN(CC)CCCC(O)c1ccc(NS(C)(=O)=O)cc1 (centres undefined) [Ibutilide fumarate] | 108
2 | Cn1c(=O)cc(N2CCC[C@@H](N)C2)n(Cc2ccccc2C#N)c1=O [Alogliptin (SYR-322)] | 102
3 | CS(=O)(=O)CCNCc1nc(-c2ccc3ncnc(Nc4ccc(OCc5cccc(F)c5)c(Cl)c4)c3c2)cs1 | 102
4 | COc1ccc(-c2cc(=O)c3c(O)cc(O[C@@H]4O[C@H](CO[C@@H]5O[C@@H](C)[C@H](O)[C@@H](O)[C@H]5O)[C@@H](O)[C@H](O)[C@H]4O)cc3o2)cc1O [Diosmin] | 106 ± 2.2
5 | COc1cc(Nc2ncc(F)c(Nc3ccc4c(n3)N(COP(=O)(O)O)C(=O)C(C)(C)O4)n2)cc(OC)c1OC | 82.8
6 | COc1cc(Nc2ncc(F)c(Nc3ccc4c(n3)N(COP(=O)(O)O)C(=O)C(C)(C)O4)n2)cc(OC)c1OC [R788 (Fostamatinib)] | 78.4
7 | COC1=C2C[C@@H](C)C[C@H](OC)[C@H](O)[C@@H](C)/C=C(\C)[C@H](OC(N)=O)[C@@H](OC)/C=C\C=C(/C)C(=O)NC(=CC1=O)C2=O [Geldanamycin] | 92.4 ± 6.7
8 | CCOC(=O)c1ncc2[nH]c3cccc(OC(C)C)c3c2c1C | 95.8
9 | CN1CC2c3ccccc3Oc3ccc(Cl)cc3C2C1 (centres undefined) [Asenapine maleate] | 99.9 ± 1.1
10 | CN1CC2c3ccccc3Oc3ccc(Cl)cc3C2C1 (centres undefined) [Asenapine] | 103
11 | CNC(=O)Nc1ccc(-c2nc(N3CC4CCC(C3)O4)c3cnn(C4CCC5(CC4)OCCO5)c3n2)cc1 | 67.2
12 | CC1CS(=O)(=O)CCN1/N=C/c1ccc([N+](=O)[O-])o1 (centres undefined) [Nifurtimox] | 103
13 | c1ccc2[nH]c(-c3cscn3)nc2c1 [Tiabendazole] | 91.1
14 | Cn1cc(-c2ccc3nnc(C(F)(F)c4ccc5ncccc5c4)n3n2)cn1 | 110
15 | CN1[C@@H](CC(=O)c2ccccc2)CCC[C@H]1C[C@H](O)c1ccccc1 [Lobeline hydrochloride] | 95.3
16 | CCC(CC)CC1(C(=O)Nc2ccccc2SC(=O)C(C)C)CCCCC1 [Dalcetrapib (JTT-705)] | 103
17 | CNC(=O)[C@H]1O[C@@H](n2cnc3c(NCc4cccc(I)c4)ncnc32)[C@H](O)[C@@H]1O | 102
18 | C=C[C@H]1CN2CC[C@H]1C[C@@H]2[C@@H](O)c1ccnc2ccc(OC)cc12 [Quinidine hydrochloride monohydrate] | 108
19 | C[C@]12CC[C@H]3C(=CCc4cc(O)ccc43)[C@@H]1CCC2=O [Equilin] | 102
20 | CCN(C(=O)CO)[C@H]1CN(/C(=N\C#N)Nc2cccc(OC(F)F)c2)N=C1c1ccc(Cl)c(Cl)c1 | 107
21 | CN1C(C(=O)Nc2ccccn2)=C(O)c2sccc2S1(=O)=O [Tenoxicam] | 104
22 | Cc1ncc([N+](=O)[O-])n1CC(O)CCl (centres undefined) [Ornidazole] | 83.3
23 | NC(=O)N1c2ccccc2CC(O)c2ccccc21 (centres undefined) [Licarbazepine] | 106
24 | Cc1cccc(C)c1NC(=O)C1CCCCN1C (centres undefined) [Mepivacaine hydrochloride] | 96.1
25 | CCc1nc(-c2cccc(C)c2)c(-c2ccnc(NC(=O)c3ccccc3)c2)s1 | 110.3 ± 0.3
26 | O=C(CCCCCCC(=O)NO)NO [Suberoyl bis-hydroxamic acid] | 88.4
27 | CN(C)CCC=C1c2ccccc2CCc2ccccc21 [Amitryptiline hydrochloride] | 102

Row | SMILES | mean cytoplasmic OPP incorporation
28 | Cc1ccnc2c1NC(=O)c1cccnc1N2C1CC1 [Nevirapine (Viramune)] | 107
29 | Cc1[nH]c(=O)c(C#N)cc1-c1ccncc1 [Milrinone] | 94.4
30 | CC(C)[C@H](CO)Nc1nc(Nc2cccc(Cl)c2)c2ncn(C(C)C)c2n1 [Purvalanol A] | 99.2
31 | Cn1c(=O)c2[nH]cnc2n(C)c1=O [Aminophylline] | 109
32 | CS(=O)(=O)c1ccc(C2=C(c3ccccc3)C(=O)OC2)cc1 [Rofecoxib] | 94.3
33 | COc1cc2c(cc1OC)CN(CCc1ccc(NC(=O)c3cc(OC)c(OC)cc3NC(=O)c3cnc4ccccc4c3)cc1)CC2 [Tariquidar] | 115
34 | FC(F)(F)c1cc(COC2CCCNC2c2ccccc2)cc(C(F)(F)F)c1 [L-733,060 hydrochloride] | 108
35 | CN(C(=O)c1ccc(F)cc1C(F)(F)F)C1CCN(c2nnc(-c3ccnn3C)c3ccccc23)CC1 | 109
36 | COc1cc(Cc2cnc(N)nc2N)cc(OC)c1OC [Trimethoprim] | 98.3
37 | CN1CCC(c2c(O)cc(O)c3c(=O)cc(-c4ccccc4Cl)oc23)C(O)C1 (centres undefined) [Flavopiridol (Alvocidib) HCl] | 58.4
38 | CCN(CC)CCOC(=O)C(c1ccccc1)C1CCCCC1 (centres undefined) [Drofenine hydrochloride] | 101
39 | COc1ccc([C@H]2CNC(=O)C2)cc1OC1CCCC1 [(S)-(+)-Rolipram] | 95.8
40 | COc1ccc([C@H]2CNC(=O)C2)cc1OC1CCCC1 [S- (+)-Rolipram] | 111
41 | COc1cc2c(cc1OC)C(=O)C(CC1CCN(Cc3ccccc3)CC1)C2 (centres undefined) [Donepezil HCl (Aricept)] | 108
42 | CCCCC(CC)CN1CN(CC(CC)CCCC)CC(C)(N)C1 (centres undefined) [Hexetidine] | 100
43 | C=CC(=O)c1ccc2ccccc2c1 | 100
44 | NS(=O)(=O)c1cccc2c1c([N+](=O)[O-])cc1nc(O)c(O)nc12 [NBQX disodium salt] | 105
45 | NS(=O)(=O)c1cccc2c1c([N+](=O)[O-])cc1nc(O)c(O)nc12 | 106
46 | N#CC(=C(/N)Sc1ccccc1N)/C(C#N)=C(/N)Sc1ccccc1N | 93.9
47 | CO[C@@]1(NC(=O)Cc2cccs2)C(=O)N2C(C(=O)O)=C(COC(N)=O)CS[C@@H]21 [Cefoxitin sodium salt] | 96.2
48 | CC(=O)c1ccc2c(c1)N(CCCN1CCC(CCO)CC1)c1ccccc1S2 [Piperacetazine] | 101
49 | COc1ccccc1-c1cc(Nc2cccc(CS(N)(=O)=O)c2)ncn1 | 94.4
50 | CC1(COc2ccc3c(c2)ncn3-c2ccc3cccc(N4CCC(N)CC4)c3n2)COC1 | 59.3
51 | CNCC[C@H](Oc1cccc2ccccc12)c1cccs1 [Duloxetine HCl (Cymbalta)] | 105
52 | O=C(CCCN1CCC(O)(c2ccc(Br)cc2)CC1)c1ccc(F)cc1 [Bromperidol] | 93.5
53 | C[C@@H](Oc1cc(-n2cnc3ccc(CN4CCN(C)CC4)cc32)sc1C(N)=O)c1ccccc1C(F)(F)F | 121
54 | N=C(N)NC(=O)c1nc(Cl)c(N)nc1N [Amiloride hydrochloride dihydrate] | 101

Row | SMILES | mean cytoplasmic OPP incorporation
55 | N=C(N)NC(=O)c1nc(Cl)c(N)nc1N [Amiloride hydrochloride] | 96.8
56 | O=[N+]([O-])c1cccc2c(Br)[nH]nc12 [3-Bromo-7-nitroindazole] | 91.4
57 | CC(Cc1ccccc1)(NC(=O)CN)c1ccccc1 (centres undefined) [Remacemide hydrochloride] | 120
58 | CC(C)(C)C(=O)OCOC(=O)[C@@H]1N2C(=O)[C@@H](NC(=O)[C@H](N)c3ccccc3)[C@H]2SC1(C)C [Pivampicillin] | 99.8
59 | CC1(C)Oc2ccc(C#N)cc2[C@H](N2CCCC2=O)[C@H]1O [Cromakalim] | 98.1
60 | CCCCOc1c(C(=O)c2c(F)cc(C)cc2F)c[nH]c2nncc1-2 | 98 ± 3
61 | CCC(=O)N1CCOc2c(cc(-c3ccc(OC)c(OC)c3)cc2OC[C@H]2CCCN(C)C2)C1 | 112
62 | O=C1NCN(c2ccccc2)C12CCN(CCCC(c1ccc(F)cc1)c1ccc(F)cc1)CC2 [Fluspirilene] | 112 ± 2.6
63 | O=C1NCN(c2ccccc2)C12CCN(CCCC(c1ccc(F)cc1)c1ccc(F)cc1)CC2 [Fluspirilen] | 103
64 | Nc1ccccc1NC(=O)c1ccc(CNC(=O)OCc2cccnc2)cc1 [Entinostat (MS-275, SNDX-275)] | 23.5
65 | COc1cccc(OC)c1OCCNCC1COc2ccccc2O1 (centres undefined) [WB 4101 hydrochloride] | 108
66 | CN(C)CC[C@H](CSc1ccccc1)Nc1ccc(S(=O)(=O)NC(=O)c2ccc(N3CCN(Cc4ccccc4-c4ccc(Cl)cc4)CC3)cc2)cc1[N+](=O)[O-] | 114
67 | C[C@H]1COC2=C1C(=O)C(=O)c1c2ccc2c1CCCC2(C)C [Cryptotanshinone] | 99.6
68 | NC(=O)Cc1cccc(C(=O)c2ccccc2)c1N [Nepafenac] | 99.2
69 | CCCCC1=NC2(CCCC2)C(=O)N1Cc1ccc(-c2ccccc2-c2nnn[nH]2)cc1 [Irbesartan (Avapro)] | 102
70 | CC1(C)OC2=C(C(=O)c3ccccc3C2=O)[C@H](NCc2ccccc2)[C@@H]1O | 38.9
71 | O=[N+]([O-])c1ccc2c(c1)S(=O)(=O)C=C2 [Stattic] | 48.5
72 | N[C@@H]1CCCCN(c2c(F)cc3c(=O)c(C(=O)O)cn(C4CC4)c3c2Cl)C1 [Besifloxacin HCl (Besivance)] | 108
73 | CC[C@H]1OC(=O)[C@H](C)[C@@H](O[C@H]2C[C@@](C)(OC)[C@@H](O)[C@H](C)O2)[C@H](C)[C@@H](O[C@@H]2O[C@H](C)C[C@H](N(C)C)[C@H]2O)[C@](C)(OC)C[C@@H](C)C(=O)[C@H](C)[C@@H](O)[C@]1(C)O [Clarithromycin (Biaxin, Klacid)] | 109
74 | CCOc1ccccc1OCC1CNCCO1 (centres undefined) [Viloxazine hydrochloride] | 87.8
75 | CCCCOC(=O)c1ccc(N)cc1 [Butamben] | 93
76 | Cc1ccc(S(=O)(=O)n2c(N)nc3ccccc32)cc1 | 102
77 | CNC(=O)c1ccc(-c2cnc3ncc(Cc4ccc5ncccc5c4)n3n2)cc1F | 107
78 | CC(C)COCC(CN(Cc1ccccc1)c1ccccc1)N1CCCC1 (centres undefined) [Bepridil] | 105
79 | CC(C)COCC(CN(Cc1ccccc1)c1ccccc1)N1CCCC1 (centres undefined) [Bepridil hydrochloride] | 113
